# Assay results from the supplement of paper PMC12645437, “Orthogonal IMiD-Degron Pairs Induce Selective Protein Degradation in Cells” (ACS Chemical Biology, 2025).
# The other results are listed elsewhere or left out.
# Target: no compound (DMSO)
# Assay: log2 fold change of degron read counts, EGFP-low vs EGFP+ sorted cells; higher = lower degron-EGFP level without compound (poor expression or instability)
# Conditions: compound: DMSO control; 18 h
# 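Also: jurkat cells carrying a lentiviral library of mutant zinc finger degrons fused to EGFP plus mCherry, mCherry+ cells FACS sorted, degron abundance counted by next-generation sequencing.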
row,Sequence,log2 fold change of degron read counts
1,FRCEQCGADFTQKGNLLRHIKL,-3.12
2,LICEICGFNCTQKGNLLRHIKL,-0.714
3,FMCEICGRWFTQKGNLLRHIKL,0.0147
4,FDCEICGARFTQKGNLLRHIKL,-1.44
5,FACNVCGASFTQKGNLLRHIKL,-0.984
6,FFCEQCGAMFTQKGNLLRHIKL,-0.62
7,FSCDQCGAYFTQKGNLLRHIKL,-1.42
8,FECPICGRAFTQKGNLLRHIKL,-0.528
9,FYCEICGHNFTQKGNLLRHIKL,-0.4
10,FACEQCGAKFTQKGNLLRHIKL,-2.25
11,FKCDICGATFTQKGNLLRHIKL,-2.86
12,LHCEICGFGCTQKGNLLRHIKL,0.00382
13,FFCEICGRVFTQKGNLLRHIKL,-0.905
14,FNCPICGRMFTQKGNLLRHIKL,0.0456
15,FQCPICGRMFTQKGNLLRHIKL,0.364
16,FGCPICGHRFTQKGNLLRHIKL,-0.0281
17,LKCEICGFPCTQKGNLLRHIKL,0.454
18,FKCPVCGASFTQKGNLLRHIKL,-0.509
19,FLCEVCGAPFTQKGNLLRHIKL,-1.38
20,FMCDVCGAWFTQKGNLLRHIKL,-0.685
21,FQCEICGAHFTQKGNLLRHIKL,-1.41
22,FVCEICGRGFTQKGNLLRHIKL,-2.35
23,FGCNQCGRAFTQKGNLLRHIKL,0.395
24,FMCDICGAQFTQKGNLLRHIKL,-1.91
25,FECDICGAIFTQKGNLLRHIKL,-1.96

row,Sequence,log2 fold change of degron read counts
1,FYCEVCGAQFTQKGNLLRHIKL,-0.686
2,FLCEICGHNFTQKGNLLRHIKL,-1.31
3,FVCEVCGAEFTQKGNLLRHIKL,-1.76
4,FTCPICGHAFTQKGNLLRHIKL,-0.62
5,LCCEICGFWCTQKGNLLRHIKL,0.929
6,LKCEICGFGCTQKGNLLRHIKL,-0.223
7,FSCPICGRWFTQKGNLLRHIKL,0.603
8,FQCNICGAVFTQKGNLLRHIKL,-0.6
9,LCCPICGFYCTQKGNLLRHIKL,1.46
10,FGCNICGATFTQKGNLLRHIKL,-0.466
11,FWCNQCGRNFTQKGNLLRHIKL,0.879
12,FACNICGALFTQKGNLLRHIKL,0.00982
13,LSCPICGFQCTQKGNLLRHIKL,0.173
14,FCCNICGARFTQKGNLLRHIKL,-1.29
15,FTCPQCGAPFTQKGNLLRHIKL,-0.958
16,FDCDICGAHFTQKGNLLRHIKL,-1.4
17,FLCDQCGAPFTQKGNLLRHIKL,-1.51
18,FACPICGRIFTQKGNLLRHIKL,0.285
19,FMCEVCGAHFTQKGNLLRHIKL,-2.17
20,FSCNQCGRMFTQKGNLLRHIKL,-0.287
21,FNCNQCGRDFTQKGNLLRHIKL,-0.816
22,FWCEICGATFTQKGNLLRHIKL,-1.06
23,FVCDVCGAPFTQKGNLLRHIKL,-1.48
24,FMCDQCGAWFTQKGNLLRHIKL,-0.66
25,FECPICGAFFTQKGNLLRHIKL,-0.312
